± gives the standard deviation of the averaged measurements. This is one part of the list.
Each sequence was assayed on PfAP2-G AP2 domain (GST-tagged) (assay: gcPBM binding intensity (ln(normalized median fluorescence intensity)); higher = stronger DNA binding).
How it was run: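 The binding buffer was 1× PBS containing 1% milk, 0.2 mg/ml BSA, 0.5% salmon testes DNA and 0.03% Triton X-100. In it, GST-tagged P. falciparum DNA-binding domains expressed in E. coli were applied for 1 h to an Agilent 4 × 180k array of primer-extended double-stranded 36-bp intergenic genomic probes plus negative controls. Binding intensity, read with Alexa488 anti-GST antibody and a 488 nm scan, is the highest Masliner-normalised natural-log median intensity across replicate spots of either probe orientation.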

| Sequence | gcPBM binding intensity (ln) |
| --- | --- |
| AATAAATAGAAAGAGGTGCTACATTATATTATTTAT | 9.73 ± 0.23 |
| ACATATTTATATGTCTGTACAAATATGCAATTTTTT [XGTACX_site5516] | 10.7 ± 0.4 |
| TTAGATAGATTTGTACGTACTTATTATAACGTATCA [XGTACX_site5067] | 11.6 ± 0.75 |
| AATTTATAAATAATTAATTTGATAAATTATAAAGGG [GTGCAC_negctrl_site544] | 9.98 ± 0.16 |
| TTTTATTATATATATTGTACATATATTTTTATTTTT [XGTACX_site1564] | 11 ± 0.41 |
| AAAAAAAAAAATGGCTGTACATAATATTTAAATAGG [XGTACX_site4286] | 11.2 ± 0.67 |
| GGATAATCATACGAAGCATGCTGAATTTCCAAATAA [TGCATGCA_site1013] | 9.755 ± 0.021 |
| AAAAAAATTAAATGGGGTACAATAAGGGTCAAATAT [XGTACX_site8669] | 11.6 ± 0.93 |
| ATAATTTTTTAGATCACACATATAAATAAATAAATA [CACACA_site5175] | 9.97 ± 0.14 |
| TTATATTAGCCGATGGTGCATATATTTATAGGAAAA [GTGCAC_site9518] | 9.9 ± 0.13 |
| ATATTTATAACTTGGTGTACTTTGAAAAAAAAAAAA [XGTACX_site5194] | 11.4 ± 1 |
| AAAAAAAAAAAAAACACACATACATACATACATATA [CACACA_site4121] | 9.95 ± 0.14 |
| TTACATATATTGGGGTGTACATATATTTTCCTTCAC [XGTACX_site6224] | 11.4 ± 0.91 |
| AAAAAAAAAAAAAAAAGTACACATAATTGTATATGT [XGTACX_site6339] | 11.7 ± 0.75 |
| TGTAGATATTTTTGGGGTACTTTATAAAGAACTAGT [XGTACX_site5635] | 11.6 ± 0.96 |
| GTTATATGAACTTATATACACACCATTTTTGTAAAT [CACACA_site695] | 10.09 ± 0.042 |
| AAATCATATTCTTATTTTATTTTTTTTATTTTTTAT [XGTACX_negctrl_site166] | 9.55 ± 0.17 |
| GAAAAACAAATATATTAACACACAAACATATAAACA [CACACA_site9315] | 10.1 ± 0.13 |
| ATATTTTATATATTTGTGCACAATATTATAATATAT | 10.4 ± 0.2 |
| AAATATTGTTTTTTATGTACTTATTTTTATTTATTT [XGTACX_site3481] | 11.4 ± 0.79 |
| ATGAAAAAGTGCTGGATTCTAAAGAAAAAAAAAAAA [CACACA_negctrl_site962] | 10 ± 0.37 |
| ATAAAATCAACAAATCAGGATGTCACGTAAATATCA [CACACA_negctrl_site1009] | 10.1 |

| Sequence | gcPBM binding intensity (ln) |
| --- | --- |
| TATTTAGAAATAAATACACACATACATTTTTGTATA [CACACA_site4557] | 9.835 ± 0.007 |
| GGTATATATTCTATCACACATATTTCCATGAAAATA [CACACA_site4728] | 10.1 ± 0.17 |
| TTAATTATATTATGCACACACAATTGGAAAAAAAAT [CACACA_site1958] | 10.2 ± 0.26 |
| GTTTATTTTTTCATTTGTACACATAAATAAATATAT [XGTACX_site7752] | 11.5 ± 0.75 |
| TATACAAACTATGATGCACACATATATATATGTATA [CACACA_site8327] | 9.885 ± 0.064 |
| AAAAAAAATTTTCTTCTGTTGTATTTTTTATACGTT [GTGCAC_negctrl_site477] | 9.76 ± 0.29 |
| ACGTTAGGCTTATTTGCACACTTGTATTAAAATTTT [CACACA_site4854] | 10.5 ± 0.14 |
| AAAAATATGCTTCCATGTACTTAAAAAAAAAATTTA [XGTACX_site3617] | 11 ± 0.64 |
| TCAACTTGATTTATATGTACACATATAAGTAATTAT [XGTACX_site1798] | 11.4 ± 1 |
| AAAAAAAAGAAAAAAACACACAATGGAAAAAATGTA [CACACA_site3675] | 9.825 ± 0.049 |
| AAAAAATTAACGAGTGCACACATATTTAGATAAAAT [CACACA_site8958] | 10.5 ± 0.28 |
| ATATATATATATATAACACACGTGTATTTATCTGTA [CACACA_site5922] | 10.2 ± 0.15 |
| AATCTAATTAAAATCACACATATATTCGTCGTAATA [CACACA_site5855] | 9.74 ± 0.13 |
| GCACATATATATGAAACACACATGGAAACATCTCTT [CACACA_site3966] | 9.97 ± 0.085 |
| ATTCAAAAAAAATCAACACACAGTTACATAGCTCAA [CACACA_site2234] | 9.82 ± 0.028 |
| ATTCCATAAGTAAACACACAAATGCCAAAATTTTAT [CACACA_site7491] | 10.01 ± 0.085 |
| ATATATATATATATGTGTACACAAAAAATATTATAT [XGTACX_site5741] | 11.6 ± 0.83 |
| AAATATTATCAAACATAAATTATTTTTATCCGTATA [CACACA_negctrl_site771] | 9.65 ± 0.2 |
| ATGGAAAAAAAGCATTGTACATTTAAAGAAAAACAG [XGTACX_site6639] | 10.9 ± 0.28 |
| TATTATATTTGTATGTGTACTTATATGGTTGTAATA [XGTACX_site4548] | 11.4 ± 0.9 |
| AACGAAAACACTACGTGTACCAAATGTCCTGCCAAC [XGTACX_site5735] | 11 ± 0.57 |
| ATTTGTGAATATATTCGGTGAACTTTGTTAACACAT [XGTACX_negctrl_site445] | 10.1 ± 0.18 |

| Sequence | gcPBM binding intensity (ln) |
| --- | --- |
| ATCTCTATGATATATACACACAAATATACAAAAAAA [CACACA_site6605] | 10.01 ± 0.085 |
| AATGTATATTATTGCACACATATATAAAATTATGCT [CACACA_site1096] | 9.99 ± 0.057 |
| AAAAAAATATAGATCTGTACATATATAAATATATGT [XGTACX_site511] | 10.8 ± 0.47 |
| TCTCTAATTTTTAATACACACAAATAAATAAATAAA [CACACA_site216] | 10.1 ± 0.26 |
| ATATATGTTAATAATTGTACAAATCGATAATATATA [XGTACX_site5076] | 10.8 ± 0.34 |
| AGGCATAATTAAAAGTAACAATTATGGAAACGGAGT [GTGCAC_negctrl_site623] | 10.1 ± 0.12 |
| TTTATTTATTATTAAAGTACTAAATTATATTATTAT [XGTACX_site2565] | 10.7 ± 0.57 |
| AAAAAAAAAAAAAACACACACATGCACCTCATATTA [CACACA_site556] | 10.2 ± 0.12 |
| TAATATCCATATAAAACACACATCAAGGTTGTTAAC [CACACA_site175] | 9.955 ± 0.021 |
| ACAACATAGAGGGGCACACACATATATACATAAAAA [CACACA_site6954] | 10.7 ± 0.52 |
| AAAAAAAAAAAAAAATGTACATATAAATAAATATAT [XGTACX_site7248] | 11.3 ± 0.8 |
| ATGTTTTATATTATTAATATATATATATATATATAT [CACACA_negctrl_site331] | 10.2 ± 0.48 |
| GTTATATAAAAATATTGTACATTCTATATAAAGTCA [XGTACX_site4418] | 10.8 ± 0.52 |
| TATGTGCACCCATATACACACACAAATACAATGATA [CACACA_site8295] | 10.9 ± 0.96 |
| AATTCATATACAAAAAGTACAAACGAAAAATAAAAA [XGTACX_site2900] | 11.4 ± 0.94 |
| TTTTAAAAATCTATATGTACACAATACGTCTATAAA [XGTACX_site5787] | 11.4 ± 0.71 |
| TGTTTGAATAACAAAAAAAAAAAAAAAATTAAAAAA [CACACA_negctrl_site1332] | 9.44 ± 0.085 |
| ATTTTAAATGTTATGCGTACATATTAATCCTACTTA [XGTACX_site1344] | 11.5 ± 0.79 |
| AAAAAAAAAAAAAACACACAAACGCTTTTTTTTTTT [CACACA_site686] | 10.22 ± 0.071 |
| TATGAAAATGTTCATACACACATAAAAAAAAAAAAA [CACACA_site3236] | 9.97 ± 0.57 |
| TACACATACACATACACACGCATAGAAACATACGAA [CACACA_site2137] | 10.2 ± 0.32 |
| GATATGTACTAATACACACACATATAGATTTATATA [CACACA_site6610] | 11 ± 0.76 |

| Sequence | gcPBM binding intensity (ln) |
| --- | --- |
| TATATTTATTATAACACACACATATATATATTATAT [CACACA_site1061] | 9.905 ± 0.064 |
| TTTTAAATATGCAGATGTACATTATAATGTTTTATT [XGTACX_site2079] | 11 ± 0.54 |
| TACATATTTTTATATACACACAATAATTATTATAAA [CACACA_site1659] | 10 ± 0.13 |
| ATAAATATTGGGTGCACACACATAATATATATATAT [CACACA_site2272] | 10.7 ± 0.67 |
| AGGTTCCCAAAATGCACACCAATGAAATTATTTATT [CACACA_site553] | 10.2 ± 0.2 |
| ATAAATAAAATTAGGTGTACTTTAATTAAAGAAAAT [XGTACX_site3319] | 11.5 ± 1 |
| TATACATATATAATATGTACATATATTTTTTTTTAA [XGTACX_site2938] | 11.1 ± 0.64 |
| CATAAAAATATTTTCTGTACATATTCATATGACGTT [XGTACX_site3406] | 11.2 ± 0.7 |
| ATTTCCTGGCTACTGTGTACTGACCTCCAGACTGCT [XGTACX_site2005] | 11 ± 0.67 |
| TTTTAACTTTTATATTGTACGTTGTTTATTTTATTT [XGTACX_site7504] | 11.2 ± 0.76 |
| ATAATCATTTGGATATTCACAATATTTAAAATTAAA [CACACA_negctrl_site909] | 9.81 ± 0.099 |
| GAAAAAAAAAAAAAAAAAAAAAAATTCATTTTTTTT [XGTACX_negctrl_site54] | 9.37 ± 0.32 |
| TATACAAAATAACTAGCACACATATGTATAAACATA [CACACA_site9236] | 10.2 |
| AAAATAAAAAATATAACACACAATAAATATATATAT [CACACA_site1926] | 9.815 ± 0.035 |
| TAAATTATATTATGCACACTTAAAAATATATTTAAC [CACACA_site3512] | 10.07 ± 0.085 |
| ATATGTATTAAGTGTACACATATAATGTATTTTGTT [CACACA_site4177] | 11.6 ± 0.92 |
| TCATAATGAAAACAAGCACACATACATAAAATAAAA [CACACA_site9069] | 10.1 ± 0.064 |
| TTATTTACCATCTCTACACACAAAAATTGATGTAGA [CACACA_site2811] | 10.1 ± 0.19 |
| CGTATGAAACATATATGTACTTATAAAAATATAACC [XGTACX_site7539] | 11.3 ± 0.86 |
| AAATCACCTTAAGAACGTACAAACAGAAAAAAATTA [XGTACX_site4623] | 11.1 ± 0.69 |
| TTTATTATATTTATATGTACTTATATAATATATGCA [XGTACX_site1906] | 11.3 ± 0.86 |
| TTATAAATATAATATTGTACAAAATTTTAACATGTC [XGTACX_site5259] | 10.9 ± 0.59 |

Source: the supplement of paper PMC11417369
